In PubChem BioAssay AID1508624 (National Center for Advancing Translational Sciences (NCATS), 2021):
The campaign covered roughly 48,000 compounds. About 120 (0.25%) were called active. Roughly 4% stayed inconclusive and do not appear here. Calls follow the shape of the dose curve; as a rule, active = well fitted activation curve with a large enough effect; inconclusive = small, poorly fitted or top-dose-only effect, or another doubt; inactive = no such curve, though single readings can be large or run the other way. This is one part of the list.

Experiment: Primary qHTS for Identification of Small Molecule Activators of Huntingtin-Antisense Promoter Activity; also: nearly all actives have a fitted effect of over 55% in size
Conditions: HEK293 HTT-AS promoter firefly luciferase reporter, 24 h; series mostly up to 57.5 µM; activity change, positive = activation: at the top concentration
In short: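 Luminescence was read after Dual-Glo reagent and a 10 min room-temperature incubation. Values were normalized to vehicle (0% activity) and zero RLU (-100% activity). Reporter HEK293 cells had been exposed to compounds (up to 57.5 uM final) for 24 h.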

Activity change, positive = activation, inactive:
CCOCCc1nn2c(=O)cc(COC(=O)COc3ccccc3Cl)nc2s1 -7.99%
COc1ccc(CNC(=O)Cn2ccc3cc(S(=O)(=O)N4CCCCC4)ccc32)c(OC)c1 -28.3%
Cc1ccc(NC(=O)CN2CCCN(Cc3ccccc3Cl)S2(=O)=O)c(C)c1 -19.3%
COc1ccccc1CNC(=O)CCc1c(C)nc2cc(-c3ccccc3OC)nn2c1C -37.5%
C/C=C/C(=O)N(CC)c1ccccc1C -0.683%
CC(=O)c1ccc(NS(=O)(=O)c2cc3[nH]c(=O)c(=O)[nH]c3cc2C)cc1 -5.18%
Cc1ccc(C)c(N2CCN(C(=O)Cn3ncc4c(=O)oc5ccc(C)cc5c43)CC2)c1 -3.73%
COc1ccc(S(=O)(=O)NCCc2nnc3ccc(SCC(=O)Nc4ccc(C(F)(F)F)cc4)nn23)cc1 -28.4%
COc1cccc(/C=C/c2nc(C#N)c(N3CCCCC3)o2)c1 -5.41%
O=C(c1cnc2cc(-c3ccccc3)nn2c1)c1cc([N+](=O)[O-])ccc1O -27.6%
CCCn1c(=N)c(C(=O)NCc2cccnc2)cc2c(=O)n3cc(C)ccc3nc21 -5.07%
O=C(C1CCCN(S(=O)(=O)c2cccc3nonc23)C1)N1CCN(c2cccc(Cl)c2)CC1 (stereo unspecified) -9.01%
CCc1ccc(CSc2nc(-c3ccccc3OC)nc3c2Cc2c(CO)cnc(C)c2O3)cc1 -14.2%
CCOc1ccccc1CNc1ncnc2c1nc1n2CCCC1 -29.8%
CSc1ccc(CCNC(=O)CCc2c(C)nc3c(-c4ccccc4)c(C)nn3c2C)cc1 -38.5%
Cc1ccccc1Cn1nc(C)c(NC(=O)c2cc(-c3ccc(F)cc3)on2)c1C -10.1%
Cc1cccc(-n2c3c(cc(-c4nc(-c5ccc(Cl)cc5)cs4)c2=O)C(=O)CC(C)(C)C3)c1 -13.4%
COC(=O)c1ccc2c(=O)n(CCCCCC(=O)NCc3ccccc3)c(=O)[nH]c2c1 -1.11%
C=C[C@H]1CN2CC[C@H]1C[C@@H]2[C@@H](O)c1ccnc2ccc(OC)cc12 -4.4%
O=C(CN1CCSc2ccccc21)N1CCN(c2ccccc2)CC1 -22.4%
CCn1cc(C2N3CC4(CC)CN2CC(CC)(C3)C4=O)c2ccccc21 (stereo unspecified) -0.895%
CCOC(=O)c1c(NC(=O)/C=C/c2ccc(OC)c(OC)c2)sc(C(C)=O)c1C -13.4%
Cc1ccc(OCc2nc(-c3ccc(C(=O)N4CCN(c5cc(Cl)ccc5C)CC4)cc3)oc2C)cc1 -23.6%
O=S(=O)(c1ccccc1)c1nc(-c2cccs2)oc1SCc1ccccc1Cl -2.75%
Oc1cn2c(n1)Nc1ccc(Cl)c(Cl)c1C2 -2.84% [at 25.1 µM, percent change from vehicle, -100% = no light]
CCOC(=O)CC(=O)CSc1nc2ccccc2c(=O)n1-c1ccc(C(=O)NCCOC)cc1 -3.1%
CS(=O)(=O)c1cccc(CNc2nc(Nc3ccc4c(c3)CCC(=O)N4)ncc2C(F)(F)F)c1 15.3%
COC(=O)c1ccc(C(=O)OC)c(NC(=O)N2CC3CCCN3c3ccccc32)c1 (stereo unspecified) -26.6%
CCOc1ccccc1NC(=O)CSc1nc2c([nH]c3ccccc32)c(=O)n1-c1ccccc1 -26.7%
O=C(CC1NCCNC1=O)Nc1ccccc1F (stereo unspecified) -6.26%
CCOC(=O)c1c(-c2ccc(C)cc2)csc1NC(=O)c1cc(=O)c2cc(Cl)ccc2o1 -5.33%
Cc1ccc(Cl)cc1N1CCN(C(=O)c2cc3c(=O)n(C)c4ccccc4c3s2)CC1 -13%
CCn1c(=O)sc2cc(NC(=O)c3cccc(OC)c3)ccc21 12.3%
COc1ccc(C2CC(=O)c3c(C)nc(N4CCN(C=O)CC4)nc3C2)c(OC)c1 (stereo unspecified) -23.7%
CCN1CCN(c2nnc(-n3cccc3C(=O)Nc3cccc(OC)c3)s2)CC1 11.6%
O=C(Cn1ccn(-c2ccc(F)c(F)c2)c(=O)c1=O)c1ccc(F)cc1 -19%
CC(C)c1nn2c(=O)cc(COC(=O)CNC(=O)c3ccccc3Cl)nc2s1 -3.29%
CCOc1ccc(Cn2c(CNS(=O)(=O)c3c(C)cc(C)cc3C)nc3cccnc32)cc1 -11.4%
Cc1nnc(NC(=O)CSc2nccn2-c2ccc(Cl)cc2)s1 -14.8%
CCC(C)n1c(SCc2ccc(C(C)(C)C)cc2)nc2ccsc2c1=O (stereo unspecified) -13.2%
CCCCCCCCCCC[C@@H](C[C@@H]1OC(=O)[C@H]1CCCCCC)OC(=O)[C@H](CC(C)C)NC=O -1.48%
Cc1cccc(C)c1Nc1c(-c2cccs2)nc2ncccn12 -26.5%
CCCCC(=O)Nc1cc2nn(-c3ccc(OCC)cc3)nc2cc1C 26.4%
Cc1ccc(OCC(=O)Nc2cc(-c3nc4ccccc4[nH]3)ccc2C)c(C)c1 -22.8%
Cc1cccc(Cn2cc(S(=O)(=O)c3ccc(Cl)cc3)c(=O)c3cc4c(cc32)OCO4)c1 -20.2%
Cn1c(=O)c2c(SCC(=O)NCC3CCCO3)nc(-c3cccc(F)c3)nc2n(C)c1=O (stereo unspecified) -9.81%
Cc1cccc(OCCSc2nc3ccc(NC(=O)c4cccs4)cc3s2)c1 -28.3%
O=C(C1CC1)N1CCc2cc(Br)cc(S(=O)(=O)N3CCN(c4cccc(Cl)c4)CC3)c21 1.06%
CCOC(=O)c1cc(-c2ccccc2)n(-c2cccc(C(=O)Nc3cccc(C)c3)c2)c1C -15.8%
O=C(Nc1ccc2nc(SCC(=O)N3CCCC3)sc2c1)c1ccc(Br)cc1 -17.1%
Cc1ccc(CSc2ccc3nnc(CCNS(=O)(=O)c4ccc(C)cc4)n3n2)cc1 -22.3%
Cc1cccc(OCC(=O)OCc2cc(=O)n3nc(-c4cccs4)sc3n2)c1 14%
CCc1nn(Cc2cccc(F)c2)c(=O)c2cc3cc(C)ccc3n12 -10.9%
NCC1CCC(C(=O)O)CC1 (stereo unspecified) -9.96%
Cc1ccc(-n2ncc(C(=O)N3CCN(c4ccccn4)CC3)c2C2CCN(C(=O)OC(C)(C)C)CC2)cc1 -1.26%
CCC(C)NC(=O)Cn1c(=O)n(-c2ccc(Cl)c(Cl)c2)c(=O)c2c(C)c(C(=O)N(CC)CC)sc21 (stereo unspecified) -16.7%
Cc1ccc(NC(=O)c2cc(S(=O)(=O)N3CCCc4ccccc43)ccc2F)cc1F -36.6%
COC(=O)c1ccccc1NC(=O)Cn1c(=O)nc(-c2ccccc2)c2cc(Cl)ccc21 -3.36%
COc1ccccc1CCNC(=O)Cc1c(C)c2cc3c(C(C)(C)C)coc3c(C)c2oc1=O -16.2%
COc1ccc(CCNC(=O)c2ccc(-n3c(C)cc4c3CCCC4)cc2)cc1OC 9.05%
CCCc1cc(=O)[nH]c(SCc2nc(-c3ccc(C)cc3)no2)n1 -16.7%
Cc1cccc(NC(=O)Cn2cnc(S(=O)(=O)N3CCCC3)c2)c1C -12.4%
CC(C)Oc1ccc(CNC(=O)Nc2ccc3c(c2)N(C)C(=O)c2ccccc2S3)cc1 -50.3%
CCCSc1ncc(Cl)c(C(=O)Nc2c(C(=O)Nc3ccccc3)oc3ccccc23)n1 -4.83%
COc1ccc(N2CCN(S(=O)(=O)CCNC(=O)COc3cccc(OC)c3)CC2)cc1 -4.7%
Cc1cccc(Cn2c(SCc3ccc(C(=O)N4CCC(C)CC4)cc3)nc3ccncc32)c1 -30.3%
CSc1ncc(C(=O)NCc2ccc(Cl)cc2)c(C(F)(F)F)n1 -12.7%
CCOC(=O)CSc1nc(-c2ccccc2)cc(C(F)(F)F)c1C#N 14.5%
Cc1nn(-c2ccccc2)c(OC(=O)c2ccc(F)cc2)c1S(=O)(=O)c1ccccc1 -17.2%
CCN(C(=O)CCNC(=O)Cn1cnc2ccccc2c1=O)c1cccc(Cl)c1 -6.08%
CCCn1cc(S(=O)(=O)c2ccc(C)cc2)c(=O)c2cc(OC)c(OC)cc21 0%
COc1ccc(C2=C(C)C(N3CCC(C(=O)Nc4cc(C)ccc4C)CC3)=NS2(=O)=O)cc1 -12.8%
COC(=O)c1ccc(Cl)cc1NC(=O)NCc1c(-n2cccc2)sc2c1CCCC2 17%
O=C(Nc1cccc2cccnc12)c1cccc2ccccc12 22.5%
CCOc1ccc(C(=O)Nc2ccc(C(=O)OCc3cc(=O)n4ccsc4n3)cc2)cc1 -17.4%
COc1cccc(N2CCN(C(=O)c3cc4c(=O)n(Cc5cccs5)ccc4nc3C)CC2)c1 -27%
Cc1ccc(CNC(=O)Cn2ncc3c([nH]c4ccc(C)cc43)c2=O)cc1 -9.55%
COc1cc(C(=O)Nc2nc3c(s2)Cc2c(Br)ccc(OC)c2-3)cc(OC)c1OC -1.75%
CCC(Sc1nc2ccccc2c2nc(CCc3c(C)n[nH]c3C)nn12)C(=O)Nc1ccc(OC)cc1 (stereo unspecified) -1.86%
COc1ccc(Cl)cc1NC(=O)CSc1c2c(nc3ccccc13)CCC2 -35.7%
O=C(c1ccc2c(c1)N(Cc1ccc(F)cc1)C(=O)c1ccccc1S2=O)N1CCOCC1 (stereo unspecified) -13.9%
CCN(c1ccccc1)S(=O)(=O)c1ccc(NC(=O)c2cc(=O)c3cc(C)ccc3o2)cc1 5.26%
O=C(OCC1CCCO1)c1ccc2c(c1)N(Cc1cccc(Cl)c1)C(=O)c1ccccc1S2(=O)=O (stereo unspecified) -15.6%
Cc1ccc(NC(=O)NCCOCCn2c(=O)oc3ccccc32)cc1F -5.48%
O=C1O[C@H](CO)[C@@H](O)[C@H](O)[C@H]1O -7.91%
Cn1c(=O)c2c(ncn2CC(=O)O)n(C)c1=O -3.39%
Cc1cc(C)c2c(n1)nn1c(C)c(CCC(=O)NCc3ccccc3Cl)c(C)nc21 -17.4%
COC(=O)c1c(C)sc(-c2c(-c3ccc4c(c3)OCCO4)[nH]c3[nH]c(=O)[nH]c(=O)c23)c1O -23.5%
CCOc1ccc(-c2cc3nc(C4CCN(C(=O)OC(C)(C)C)CC4)c(C(=O)Nc4ccc(C)cc4Cl)cn3n2)cc1 19.7%
O=S(=O)(c1ccc(Br)cc1)c1nnn2c1nc(Nc1cccc(C(F)(F)F)c1)c1sccc12 -11.6%
CN1CCSc2ccc(C(=O)NCc3ccccc3F)cc21 14.7%
O=C(CN(CCc1ccccc1)S(=O)(=O)c1ccccc1)NCc1ccc(Cl)cc1 -26.1%
COc1cc(CNc2ccc3c(c2)ncn3C(C)C)cc(OC)c1OC -28.2%
Cc1cc(Cl)ccc1Nc1ncnc2onc(C)c12 -19.2%
Cc1ccc(Cl)cc1N1CCN(C(=O)c2cc(S(=O)(=O)N3CCCCCC3)cn2C)CC1 -38%
Fc1ccccc1OCc1nc(-c2ccc(-n3cccc3)cc2)no1 13%
